{"source": "PubChem BioAssay AID485294", "about": "(National Center for Advancing Translational Sciences (NCATS), 2010)", "note": "About 150 (0.041%) of roughly 370,000 compounds were called active. This list was built around the results that the source calls inconclusive (neither active nor inactive); the mix of calls is not that of the screen. Calls follow the shape of the dose curve; as a rule, active = well fitted inhibition curve with a large enough effect; inconclusive = small, poorly fitted or top-dose-only effect; inactive = flat fitted curve, though single readings scatter. No potency is given beside an inconclusive call; the fits are too rough. Potency is read from the fitted curve at half-maximal effect; tags tell the direction and shape of the fitted curve."}
{"molecular_target": "Beta-lactamase (Escherichia coli (strain K12)) (UniProt P00811)", "sequence (P00811 whole entry, looked up)": "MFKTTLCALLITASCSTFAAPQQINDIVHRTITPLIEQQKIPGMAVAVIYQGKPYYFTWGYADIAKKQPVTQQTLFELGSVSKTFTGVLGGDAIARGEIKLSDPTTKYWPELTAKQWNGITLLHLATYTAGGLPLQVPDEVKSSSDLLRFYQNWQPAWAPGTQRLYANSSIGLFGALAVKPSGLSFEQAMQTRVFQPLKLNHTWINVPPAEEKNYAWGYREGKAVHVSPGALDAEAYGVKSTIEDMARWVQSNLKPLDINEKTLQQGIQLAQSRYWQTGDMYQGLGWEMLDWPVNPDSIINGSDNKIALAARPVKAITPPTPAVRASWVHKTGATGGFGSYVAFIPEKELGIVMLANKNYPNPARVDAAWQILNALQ", "experiment": "qHTS Inhibitors of AmpC Beta-Lactamase (assay with detergent); also: nearly all actives have a fitted effect of over 25% in size;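 as to activity change, negative = inhibition: 0% = no-compound wells and -100% = no-enzyme wells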", "conditions": "AmpC hydrolysis of nitrocefin, absorbance 480 nm, 0.01% Triton; activity change, negative = inhibition: at 114 µM (top of the series)", "summary_of_the_method": "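20 mM phosphate pH 7.0 + 0.01% (detergent screen) or 0.0001% Triton X-100; 5.3 nM AmpC reagent; cpd preinc 15 min RT; nitrocefin (800 uM stock) to start; A480 q20 s × 4 min; Activity was normalised to no-enzyme and no-compound control wells.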"}
{"smiles": "COc1ccccc1N1CCN(C(=O)c2ccc3[nH]c4c(c3c2)CC(C)CC4)CC1", "note": "(configuration not stated)", "Potency": "inconclusive [inhibitor, full curve, poor fit]"}
{"smiles": "CC(=O)Nc1ccc(S(=O)(=O)N(C)CC(=O)Nc2ccc(Br)cc2F)cc1", "Potency": "inconclusive [inhibitor, partial curve, poor fit]"}
{"smiles": "O=C(Nc1ccc(-c2noc(CCc3ccccc3)n2)cc1)c1ccco1", "Potency": "inconclusive [inhibitor, full curve, poor fit]"}
{"smiles": "COc1ccccc1-n1c(SCC(=O)NCc2ccc3c(c2)OCO3)nc2cc([N+](=O)[O-])ccc21", "activity change, negative = inhibition": "inactive: -5.49%"}
{"smiles": "Cc1cc(OC(C)C(=O)NCc2ccccn2)c2c(C)c(Cc3ccccc3)c(=O)oc2c1", "note": "(configuration not stated)", "Potency": "inconclusive [inhibitor, partial curve, poor fit]"}
{"smiles": "COc1ccc(NS(=O)(=O)c2cccc(NC(=O)NC3CCCCC3)c2)cc1", "Potency": "inconclusive [inhibitor, full curve, poor fit]"}
{"smiles": "CCN(C(=O)C1CCCN(c2nc(-c3ccc(OC)cc3)no2)C1)c1ccccc1F", "note": "(configuration not stated)", "Potency": "inconclusive [inhibitor, full curve, poor fit]"}
{"smiles": "Cc1cc(-n2ccc(=O)[nH]c2=O)nc(-c2ccccc2)n1", "Potency": "inconclusive [inhibitor, partial curve]"}
{"smiles": "Cc1ccccc1/C=N/Nc1nc2ccccc2[nH]1", "activity change, negative = inhibition": "inactive: 0.762%"}
{"smiles": "CN(Cc1ccccc1)C(=O)CSc1nc(-c2ccc(F)cc2)cc(C(F)(F)F)n1", "activity change, negative = inhibition": "inactive: 20.8%"}
{"smiles": "Cc1[nH]c2ccccc2c1C(=O)C(C)OC(=O)c1ccc(NC(=O)CC#N)cc1", "note": "(configuration not stated)", "activity change, negative = inhibition": "inactive: 13.6%"}
{"smiles": "Cc1ccc(C(=O)NCCNC(=O)c2ccc(C)o2)o1", "Potency": "inconclusive [inhibitor, full curve]"}
{"smiles": "Cc1cc(Cl)ccc1OCC(=O)NCCOC(=O)Nc1sc(=S)n(C)c1C", "Potency": "inconclusive [inhibitor, partial curve, poor fit]"}
{"smiles": "CCc1ccc(NC(=O)CCCN2C(=O)C3CC=CCC3C2=O)cc1", "note": "(configuration not stated)", "activity change, negative = inhibition": "inactive: 19%"}
{"smiles": "CCN(CC)CCCn1c(=S)[nH]c2cc(Cl)ccc2c1=O", "Potency": "inconclusive [inhibitor, full curve]"}
{"smiles": "CCCCOC(=O)CCc1nc2ccccc2[nH]1", "Potency": "inconclusive [inhibitor, full curve]"}
{"smiles": "Cc1ccc(OCCCn2ccnc2)c([N+](=O)[O-])c1", "activity change, negative = inhibition": "inactive: -4.38%"}
{"smiles": "O=C(Cn1[nH]c(=O)c2ccccc2c1=O)N1CC=C(c2ccccc2)CC1", "Potency": "inconclusive [inhibitor, full curve]"}
{"smiles": "Cc1cccn2c(=O)nc(SCC(=O)NCc3ccco3)nc12", "Potency": "inconclusive [inhibitor, partial curve, poor fit]"}
{"smiles": "Cc1ccc(S(=O)(=O)NC(C)(C)C)cc1C(=O)OCC(=O)N1CCCC1=O", "Potency": "inconclusive [inhibitor, full curve]"}
{"smiles": "O=C(N/N=C/c1cccc(O)c1)c1csc2ccccc12", "Potency": "inconclusive [inhibitor, full curve, poor fit]"}
{"smiles": "Cc1ccc2cc3cc(C(=O)NC4CC4)oc3nc2c1", "activity change, negative = inhibition": "inactive: 7.76%"}
{"smiles": "Cc1[nH]c2ccccc2c1SCC(=O)N1CCCc2ccccc21", "Potency": "inconclusive [inhibitor, full curve, poor fit]"}
{"smiles": "COc1ccc(-c2c(C)oc3c(CN4CCCCC4C)c(O)ccc3c2=O)cc1OC", "note": "(configuration not stated)", "Potency": "inconclusive [inhibitor, partial curve]"}
{"smiles": "CC(=O)N1CCN(c2ccc(NC(=S)NC(=O)COc3ccc(C(C)(C)C)cc3)cc2)CC1", "Potency": "inconclusive [inhibitor, full curve]"}
{"smiles": "O=C(Nc1ccncc1)c1cc(-c2ccccn2)nc2ccccc12", "activity change, negative = inhibition": "inactive: -3.11%"}
{"smiles": "Cc1ccc2c(c1)N(CC(=O)NCCCN1CCOCC1)C(=O)c1cccnc1O2", "Potency": "inconclusive [inhibitor, full curve]"}
{"smiles": "CCCCOCCCNC(=O)C1CCCCC1", "Potency": "inconclusive [inhibitor, partial curve]"}
{"smiles": "Cc1ccc(NC(=S)NC(=O)C2CCC2)cc1C", "Potency": "inconclusive [inhibitor, full curve, poor fit]"}
{"smiles": "O=C(NC1CCCCC1)C(c1ccc2ncccc2c1)N(Cc1ccc2c(c1)OCO2)C(=O)c1ccc2c(c1)OCCO2", "note": "(configuration not stated)", "activity change, negative = inhibition": "inactive: -16.8%"}
{"smiles": "COc1ccc(C(=O)Nc2cccc3nc(C)ccc23)c(OC)c1", "Potency": "inconclusive [inhibitor, full curve, poor fit]"}
{"smiles": "COCC(=O)N1CCC(Oc2ccc(C(=O)N(C)C3CCCCC3)cc2)CC1", "Potency": "inconclusive [inhibitor, partial curve, poor fit]"}
{"smiles": "Cc1ccc(S(=O)(=O)N/N=C2/CC(c3ccccc3)Oc3ccccc32)cc1[N+](=O)[O-]", "note": "(configuration not stated)", "activity change, negative = inhibition": "inactive: -0.111%"}
{"smiles": "Cc1ccc(SCc2cc(=O)[nH]c(N3CCCCC3)n2)cc1", "Potency": "inconclusive [inhibitor, full curve, poor fit]"}
{"smiles": "COc1ccc(-n2nc(C(=O)Nc3nc4ccc(OC)cc4s3)c3ccccc3c2=O)c(OC)c1", "Potency": "inconclusive [inhibitor, partial curve, poor fit]"}
{"smiles": "CCOC(=O)C1(CCOc2ccccc2)CCN(CCCn2cccn2)CC1", "activity change, negative = inhibition": "inactive: -4.9%"}
{"smiles": "COc1ccccc1NC(=O)C(C)Sc1nc2ccccc2c(=O)n1CC1CCCO1", "note": "(configuration not stated)", "Potency": "inconclusive [inhibitor, full curve, poor fit]"}
{"smiles": "CCOC(=O)C1CCN(C(=O)COC(=O)COc2ccccc2OC)CC1", "Potency": "inconclusive [inhibitor, full curve, poor fit]"}
{"smiles": "COc1ccccc1CC(=O)Nc1ccc(-c2nnc(-c3ccco3)o2)cc1", "activity change, negative = inhibition": "inactive: -11.9%"}
{"smiles": "COc1cccc(CNC(=O)c2cc(S(=O)(=O)N3CCCC3)cn2C)c1", "Potency": "inconclusive [inhibitor, partial curve, poor fit]"}
{"smiles": "COc1ccc(NC(=O)CSc2nc(O)c(Cc3ccccc3)c(=O)[nH]2)cc1", "Potency": "inconclusive [inhibitor, full curve, poor fit]"}
{"smiles": "CCc1nnc(NC(=O)CCC(=O)N2CCCC(O)C2)s1", "note": "(configuration not stated)", "Potency": "inconclusive [inhibitor, full curve, poor fit]"}
